# Measured values: ChEMBL document CHEMBL4888484, “Replenishing the malaria drug discovery pipeline: Screening and hit evaluation of the MMV Hit Generation Library 1 (HGL1) against asexual blood stage Plasmodium falciparum ,using a nano luciferase reporter read-out” (2022)
# The campaign covered roughly 150,000 compounds. About 540 (0.36%) showed an effect of 50% or more. Some of the results follow.
# Test system: Plasmodium falciparum
# Test: Primary screen in NF54 nanoGlo assay, in single point, at 2uM, 72h; a lower Z score goes with more inhibition
# Assay type: functional, Erythrocyte
# Settings: timepoint 72 hour
SMILES,% Inhibition [%],Z score
O=C(CCn1cc(Cl)cn1)N1CCOC[C@@H](O)C1,-16,1.49
CC(C)(C(=O)N1CCC([C@@H]2CCCO2)CC1)c1c[nH]cn1,26,-3
Cc1ccc2[nH]c(C(=O)N3CCC(Oc4cccc(C#N)c4)CC3)c(C)c2c1,-4,0.66
COc1ccc(-c2nnc(-c3cccnc3NCCC3=CCCCC3)o2)cc1,-14,1.37
Cc1nc(N2CCN(C)CC2)nc(C)c1NC(=O)c1ccccc1,-3,0.45
CCNC/C=C/COc1ccc(C(C)(C)C)cc1,-5,0.52
CCCc1ccc(CN2C[C@H](O)[C@@H](N3CCN(C)CC3)C2)o1,14,-1.79
Cc1nn(-c2cc(N(C)C)ncn2)c(C)c1CCC(=O)N1CCCC1,-1,0.21
Cn1nc(CN(C(=O)c2cccs2)C2CCCC2)c2c1CCC2,-18,3.5
CCN1CC2(CCN(CC(=O)NC(C)C)CC2)C[C@@H](c2ccccc2)C1=O,-24,2.1
CCn1nc(CC2CC2)nc1Cn1nc2ccccc2n1,-2,0.36
CCc1nocc1CN(C)C(=O)[C@H]1CCc2cncn2C1,-5,0.9
COc1ccc(N2CCN(C(=O)CNc3ccc4c(c3)OC(F)(F)O4)CC2)cc1,-22,2.24
CCC(=O)N1CCc2cc(CNC(=O)c3ccc(OC)cc3)ccc21,-9,1.69
CCCNC(=O)N1CC[C@@H](CC(=O)O)[C@@H](CC2=NCCc3cc(F)ccc32)C1,-1,0.1
COCCN(Cc1nc(-c2ccccc2C)no1)C1CC1,-10,1.47
COc1ccc2c(c1)CCCN2Cc1c(O)c(C(=O)Oc2ccccc2)cc2ccccc12,-6,0.73
C[C@@]1(C2CC2)COCCN1C(=O)c1cncc(N2CCCC2)n1,6,-0.7
O=C1NCCCc2[nH]c(-c3ccc4c(c3)OCO4)nc21,0,0.09
CCOc1cc(C(=O)O)c(N)cc1OC,-2,0.3
C[C@H](NC(=O)c1ccc2c(c1)OCCO2)c1ccc2[nH]ccc2c1,-26,2.56

SMILES,% Inhibition [%],Z score
CC(=O)NC(c1ccccc1F)C(C)NC1CCOc2ccccc21 (stereo unspecified),-4,0.64
N#Cc1cc(C(=O)Nc2cccc3c2CCO3)ccc1F,0,-0.03
Cn1c(-c2cccs2)c(CN(Cc2ccccc2)C(=O)Nc2ccc(Cl)cc2)c2ccccc21,-16,1.98
CNc1ccnc(N[C@H]2CC(C)(C)Cc3nc(N(C)Cc4ccccc4)ncc32)n1,7,-1.42
O=C(N[C@@H]1CN(C(=O)CC2CCCCC2)CC[C@@H]1CO)c1cccnc1,6,-0.78
Cc1nc(-c2c[nH]c(C(=O)Nc3ccc(=O)n(Cc4ccccc4Cl)c3)c2)cs1,7,-1.33
CCOC(=O)c1nnc(-c2ccns2)o1,-4,0.69
CCN1CCCC[C@H]1C(=O)N1CCC(c2nc(C)no2)CC1,-1,0.08
CC[C@H]1CC[C@H](C(=O)N2CCC[C@H](O)CC2)CC1,-24,2.61
Cc1c(CN2CC(N3CCCC[C@@H]3C)C2)cnn1C,-11,2.11
O=C1CN(Cc2cccc(C(F)(F)F)c2)S(=O)(=O)c2ccccc2N1Cc1ccccc1,19,-2.24
CCc1n[nH]c(NC(=O)c2nc(C3CC3)ncc2Br)n1,1,-0.26
CC(C)Nc1c(-c2ccc(Cl)cc2)cn(C(C)C)c1-c1ccc(Cl)cc1,-32,3.7
N#C[C@H](C(=O)Nc1ccc(F)c(Cl)c1)C(=O)c1cocn1,-7,1.33
CC(C)n1cc(CNc2ncccn2)cn1,-3,0.31
CN1CCN(C(=O)c2ccccc2N2CCC(NC(=O)c3ccccc3)CC2)CC1,9,-1.65
CN(C)c1ccc(C(=O)NC(c2cnn(C)c2)[C@H]2C[C@@H](O)C2)cc1 (stereo partly specified),-13,1.47
N#Cc1ccc(OCC2(C#N)CC2)c(F)c1,1,-0.14
O=C(O)c1ccc(N(C(=O)c2ccc3c(c2)OCO3)C(=O)c2ccc3c(c2)OCO3)cc1O,31,-4.48
CC(C)c1ccc(N2C[C@@H](C(=O)N3CC(c4ccccn4)C3)CC2=O)cc1,-6,1.13
Cn1ncc(N2CCO[C@@H](CCNC(=O)C3(C)CCCCC3)C2)cc1=O,-6,1.1

SMILES,% Inhibition [%],Z score
O=C(NC1CCCCC1)[C@@H]1C[C@@H](O)CN1C1CCN(C(=O)C2CCOCC2)CC1,-4,0.68
COCCOc1cc2cc(c1)C(=O)NCCNC(=O)N[C@H]1CCN(C(=O)COc3ccc(C)cc3)C[C@@H]1OCc1cccc(c1)O2,4,-0.55
Cc1[nH]nc(C(N)=O)c1NC(=O)Cc1cccc(Cl)c1,-11,1.72
Cc1nccn1CCN(C)C(=O)N[C@@H](C)c1cnn(C)c1,-1,0.12
COc1ccc(C(=O)N2CCc3nc(N4CCN(c5ccccc5)CC4)nc(N4CCN(C)CC4)c3C2)cc1,-13,1.24
COc1cc(CN2CCC[C@@]3(CCC(=O)N(C)C3)C2)cc(Cl)c1OCC(N)=O,-10,1.85
Cc1[nH]c2ccccc2c1[C@H]1C(c2ccccc2)=NN=CN1O,-34,4
CC[C@@H](NC(C)=O)C(=O)Nc1nn(-c2ccc(F)cc2)c2cccc(OC(C)C)c12,13,-2.23
COc1c(C(=O)N2CCN(C(=O)[C@@H]3CCCO3)CC2)c(C)nn1C,-1,0.11
COc1ncccc1NC(=O)N1CCC[C@H](N2CCCCC2)C1,-6,0.95
CCCn1nnnc1CN1CCCN(C(C)=O)CC1,5,-0.81
Cc1ccc(C(=O)CCN2CC[S+]([O-])CC(C)C2)cc1 (stereo unspecified),2,-0.24
CN(C)S(=O)(=O)NCc1cccnc1-c1ccco1,-16,3.04
COC(=O)c1cc(F)ccc1CN1C(=O)CC(C)(C)C1=O,-16,2.22
Cc1ccc(C(=O)N2C(=O)C(c3ccc(F)cc3)=NC2(C)C)cc1C,-14,1.4
CN1CC(=O)N(CC(=O)N2CCN(c3cccc(C(F)(F)F)c3)CC2)C1=O,-10,1.88
CCc1cc([C@@H]2CCCN2C(=O)NCc2ccccc2)on1,18,-2.63
C[C@@H](CC#N)NC(=O)c1ccc(O)cc1O,3,-0.43
FC(F)(F)CN1CC[C@H](NCc2cccc(-c3ccccc3)c2)C1,-8,1.5
CC[C@H](NC(=O)c1cc(-c2ccco2)nc2c(Cl)cccc12)c1cnn(C)c1,-14,2.04
Cc1cccc(C2CCN(C(=O)N[C@H]3CC[C@@H](C#N)C3)C2)c1 (stereo partly specified),-5,0.75

SMILES,% Inhibition [%],Z score
COc1ccc(-c2cc3c(=O)n(C[C@H](O)c4cc(C)c(C)cc4C)ccn3n2)cc1,-11,2.06
O=C(Cc1cccc2ccccc12)N1C2CCC1COC2,-12,1.31
CCc1ccc(CN(CN2C(=O)NC3(CCC(C)CC3)C2=O)C2CC2)cc1 (stereo unspecified),3,-0.6
Cc1[nH]nc(CCC(=O)NCc2ccc3c(c2)nc(C)n3C)c1C,11,-2.3
Cc1ccc(C(=O)Nc2ccsc2-c2nnc(C(C)C)o2)cc1C,-14,1.41
CC(C(=O)NCc1ccc2c(c1)OCO2)N1CCN(C(C)C(=O)NCc2ccc3c(c2)OCO3)CC1 (stereo unspecified),-6,1.19
O=C(c1ccc2ncsc2c1)N1CCC(n2c(=O)[nH]c3ccc(F)cc3c2=O)CC1,-3,0.36
CC(C)c1ccc(-c2nnn(CCC(=O)Nc3ccc(Cl)cc3F)n2)cc1,5,-0.39
CCN1CCN(C(=O)c2cc3cc(NC(=O)c4ccc(C)cc4)ccc3n2Cc2ccc(C(C)(C)C)cc2)CC1,-2,0.32
CC(C)c1noc([C@H](C)NS(=O)(=O)c2cccc3nsnc23)n1,-3,0.46
CC1CC(OC(=O)c2cc(-c3cccc(Cl)c3)[nH]n2)C(=O)O1 (stereo unspecified),1,-0.08
N#Cc1cccc([C@@H](N)C(F)(F)F)c1,-2,0.23
CC(C)(C)c1nsc(NC2CCN(CCS(C)(=O)=O)CC2)n1,-6,0.61
O=C(Cc1ccon1)Nc1ccccc1Oc1cc(F)cc(F)c1,-6,0.7
CC(C)Oc1cccc2c1c(NC(=O)[C@@H]1CCCN1C)nn2Cc1ccccc1,-6,1.11
Cc1cc(C(=O)N[C@H](c2cncc(Br)c2)C2CC2)on1,-15,1.55
C[C@H]1c2ccccc2CN1C(=O)CC1=CCCCC1,2,-0.21
CCn1cncc1Cn1ccnc1-c1cccc(OC)c1OC,9,-1.27
O=C(NCCc1cccnc1)c1ccccc1C(=O)c1ccc(F)cc1,-3,0.45
Cc1ccc2c(c1)CN(C(=O)NC1CN(C3CC3)CC1C)C2 (stereo unspecified),-3,0.53
